{
  "source": "PubChem BioAssay AID686970",
  "about": "(National Center for Advancing Translational Sciences (NCATS), 2013)",
  "note": "Screen size: about 360,000 compounds; about 6,000 (1.7%) were called active. Inconclusive results, whose numbers are uncertain, are shown with a selection of clear calls. Calls follow the shape of the dose curve; as a rule, active = well fitted cell-killing curve with a large enough effect; inconclusive = small, poorly fitted or top-dose-only effect, or effect the other way; inactive = flat fitted curve, though single readings scatter. Potencies of inconclusive entries are left out as doubtful fits. Potency is read from the fitted curve at half-maximal effect; tags tell the direction and shape of the fitted curve.",
  "data": [
    {"experiment": "qHTS for induction of synthetic lethality in tumor cells producing 2HG: qHTS for the HT-1080-NT fibrosarcoma cell line;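 also: NT is the 2HG producing partner of a matched IDH1 knockdown line; nearly all actives have a fitted effect of over 55% in size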", "details": "HT-1080-NT fibrosarcoma viability, CellTiter-Glo ATP luminescence, 48 h; series mostly up to 46.1 µM", "summary_of_the_method": "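HT-1080-NT fibrosarcoma cells (2HG-overproducing), 750 cells/well in RPMI with 5% FBS, dosed after 2 h and incubated 48 h at 37C. CellTiter-Glo luminescence normalized to DMSO and no-cell wells; concentration-response curves fitted and classed.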", "values": [
      {"smiles": "Cc1cccc(N2CCN(CCCNC(=O)C3CCCN(c4ncnc5c4nc4n5CCCCC4)C3)CC2C)c1", "note": "(stereo not given)", "Potency": "active: 20.6 µM"},
      {"smiles": "COc1ccc(C(CNC(=O)c2sccc2C)N2CCOCC2)cc1", "note": "(stereo not given)", "Potency": "inactive"},
      {"smiles": "CCC(=O)N1c2ccc(S(=O)(=O)N3CCN(c4ccc([N+](=O)[O-])cc4)CC3)cc2CC1C", "note": "(stereo not given)", "Potency": "inconclusive [cytotoxic, single point]"},
      {"smiles": "O=C(OC(C(=O)NCc1ccc(F)cc1)c1ccccc1)c1ccco1", "note": "(stereo not given)", "Potency": "inactive"},
      {"smiles": "C/C(=N\\NC(=O)c1cc2ccccc2cc1O)c1ccc(C)o1", "Potency": "inconclusive [cytotoxic, partial curve]"},
      {"smiles": "O=C(NCCc1ccccc1)c1coc(=O)c(Br)c1", "Potency": "active: 20.6 µM"},
      {"smiles": "O=C(CC1(O)C(=O)Nc2cc(Cl)cc(Cl)c21)c1ccccc1O", "note": "(stereo not given)", "Potency": "inconclusive [cytotoxic, single point]"},
      {"smiles": "CCCSc1nnc(CSc2nc3ccccc3s2)n1-c1ccccc1", "Potency": "inconclusive [cytotoxic, single point]"},
      {"smiles": "COC(=O)CCN(C1CCCCC1)S(=O)(=O)c1ccc(S(=O)(=O)N2CCCCC2)cc1", "Potency": "inactive"},
      {"smiles": "CCCNC(=O)C1(C)CCCN(C(=O)c2c(C)noc2C)C1", "note": "(stereo not given)", "Potency": "inconclusive [rising, full curve, poor fit]"},
      {"smiles": "COc1ccccc1N1CCN(c2ccc([N+](=O)[O-])cc2Cl)CC1", "Potency": "inconclusive [cytotoxic, partial curve]"},
      {"smiles": "COc1ccccc1OCCC(=O)OCC(=O)Nc1cc(S(=O)(=O)N(C)C)ccc1Cl", "Potency": "inactive"},
      {"smiles": "CCCCC1Cc2[nH][nH]c(=O)c2C(c2ccc(F)cc2)O1", "note": "(stereo not given)", "Potency": "inconclusive [cytotoxic, single point]"},
      {"smiles": "O=C(NC1CCCCC1)C(c1cccs1)N(Cc1cccs1)C(=O)c1cccs1", "note": "(stereo not given)", "Potency": "inconclusive [cytotoxic, single point]"},
      {"smiles": "Cc1ccc2nc(N(CCCN(C)C)C(=O)c3ccc(S(=O)(=O)N4CCc5ccccc5C4)cc3)sc2c1", "Potency": "inconclusive [cytotoxic, single point]"},
      {"smiles": "Cc1ccsc1C(=O)N1CCCC(CO)(Cc2ccccc2)C1", "note": "(stereo not given)", "Potency": "inactive"},
      {"smiles": "COc1ccc(CCN(Cc2cccs2)S(=O)(=O)c2ccc(-n3cnnn3)c(OC)c2)cc1OC", "Potency": "inconclusive [cytotoxic, full curve, poor fit]"},
      {"smiles": "CCc1nc2ccc(C(=O)NCc3ccc4c(c3)OCO4)cn2c1N(C)CCC(C)C", "Potency": "inconclusive [cytotoxic, single point]"},
      {"smiles": "COc1ccc(OC)c(NC(=O)Nc2cc(NC(=O)Nc3cc(OC)ccc3OC)c(C)nc2C)c1", "Potency": "active: 18.4 µM"},
      {"smiles": "Cc1ccc(-n2ccc(=O)c(-c3ccnc(SCc4cccc(Cl)c4)n3)n2)cc1", "Potency": "inconclusive [cytotoxic, single point]"},
      {"smiles": "COc1ccc(C(C)(O)c2nc(-c3ccccc3)cs2)cc1", "note": "(stereo not given)", "Potency": "inconclusive [cytotoxic, single point]"},
      {"smiles": "O=C(N/N=C/c1ccccc1OC(=O)c1ccc2c(c1)OCO2)c1cccc(F)c1", "Potency": "inconclusive [cytotoxic, single point]"},
      {"smiles": "COc1ccc(COc2cc(-c3cccc(OC)c3)nc3ccc(NC(=O)c4ccc(Cl)cc4)cc23)cc1", "Potency": "inconclusive [cytotoxic, single point]"},
      {"smiles": "CCc1nc2ccc(C(=O)Nc3ccc(NC(C)=O)cc3)cn2c1N(C)CCC(C)C", "Potency": "inconclusive [cytotoxic, single point]"},
      {"smiles": "Nc1c(-c2cccs2)nc2ccccn12", "Potency": "inconclusive [rising, partial curve, poor fit]"},
      {"smiles": "COC(=O)c1ccc(NC(=S)NC2CCCCC2C)cc1", "note": "(stereo not given)", "Potency": "inconclusive [cytotoxic, single point]"},
      {"smiles": "Cc1nonc1C1CCCN1C(=O)c1cc(COc2cccc(C(F)(F)F)c2)on1", "note": "(stereo not given)", "Potency": "inconclusive [cytotoxic, single point]"},
      {"smiles": "CC(=O)C1=C(O)C(=O)N(c2nccs2)C1c1ccccc1F", "note": "(stereo not given)", "Potency": "inactive"},
      {"smiles": "COc1ccc(F)cc1C(=O)C1CCCN(Cc2cn(C)c3ccccc23)C1", "note": "(stereo not given)", "Potency": "inconclusive [cytotoxic, partial curve]"},
      {"smiles": "OCCN1CCN(CC/C=C2/c3ccccc3Sc3ccc(C(F)(F)F)cc32)CC1", "Potency": "active: 20.6 µM"},
      {"smiles": "Cc1ccc(S(=O)(=O)N2C[C@H]3C(=O)C[C@@H](c4cccs4)N(S(=O)(=O)c4ccc(C)cc4)[C@H]3C[C@H]2c2ccccc2)cc1", "Potency": "inactive"},
      {"smiles": "CC(=O)OC[C@@H]1CN(Cc2ccccc2)C[C@H](n2ccc3c(N)ncnc32)O1", "Potency": "inconclusive [rising, single point]"},
      {"smiles": "CCc1nnc(NC(=O)Cc2ccc(Br)cc2)s1", "Potency": "inactive"},
      {"smiles": "CCn1c(O)c(N=NC(=O)CNC(=O)c2ccccc2F)c2ccccc21", "Potency": "inconclusive [cytotoxic, partial curve]"},
      {"smiles": "COc1ccccc1N=Nc1c(C)[nH][nH]c1=O", "Potency": "inconclusive [cytotoxic, single point]"}
    ]}
  ]
}
